Assay results: the RNAGym collection of RNA variant scans (doi:10.1073/pnas.2313332121)
This sample is rich in variants without activity.

B1: TPR 5TU (parent)
chain: GGAUCUUCUCGAUCUAACAAAAAAGACAAAUCUGCCACAAAGCUUGAGAGCAUCUUCGGAUGCAGAGGCGGCAGCCUUCGGUGGCGCGAUAGCGCCAACGUUCUCAACUAUGACACGCAAAACGCGUGCUCCGUUGAAUGGAGUUUAUCAUG

Variants of: B1
Assay: polymerase ribozyme fitness, log enrichment relative to wild type (log ratio); higher = more active; in vitro selection for triplet polymerase activity
Outline: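 The heterodimeric triplet polymerase ribozyme's subunits were each mutagenized into PCR-built libraries and transcribed. Every library was selected once, in triplicate, by annealing with a biotinylated primer, the partner subunit and triplets, incubating frozen at −7 °C, gel-excising extended constructs, capturing on streptavidin beads and running RT-PCR. Input and output libraries were Illumina-sequenced, with genotypes kept only at ≥10 input reads and ≥1 read per output. Fitness, from inverse-variance-weighted replicate averages, is the base-2 logarithm of genotype enrichment over wild-type enrichment.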

Variant	polymerase ribozyme fitness (log ratio)
GGAUCUUCUCGAUCUAACAAAAAAGACAAAUCUGCCACAAAGCUUGAGAGCCUCUUCUGAUGCAUAGGAGGCAGCCUUCCGUGGCGCGAUAGCGCCAACGUUAUCAAGUAUGACACGCAAAACGCGUGCUCCGUUGAAUGGAGUUUAUCAUG	≤ -4.2
GGAUCUUCUCGAUCUAACAAAAAAGACAAAUCUGCCACAAAGCUUGAGAGCCUCUUCGGAUGCAGUGGCGGCAGCCUUCGGUGGCGCGAUAGUGCCAACGUUCUCAACUAUGACACGCAAAACGCGUGCUCCGUUGAAUGGAGUUAAACAUG	≤ -4.2
GGAUCUUCUCGAUCUAACAAAAAAGACAAAUCUGCCACAAAGCUUGAGAGCCUCUUCGGAUGCAGAGGCGGCAGCCUUCGGUGGCGCGAUCGCGCCAACGUUCUCAACUAUGACACGCACAACGCGUGCUCCGUUGAAUGGAGUUUAUCAUG	≤ -4.2
GGAUCUUCUCGAUCUAACAAAAAAGACAAAUCUGCCACAAAGCUUGAGAGCCUAUUCGGAUGCAGAGGCGGCAGCCUUCGGUGGCGCGAUAGAGCCAACGUUCUGAACUAUGACACGCAAAACGCGUGCUGCGUUGAAUGGAGUUUAUCAUG	≤ -4.2
GGAUCUUCUCGAUCUAACAAAAAAGACAAAUCUGCCACAAAGCUUGAGAGCCUCUUCGGAUGCAGAGGCGGCAGCCUUCGAUGGUGCGAUAGCGCCAAAGUUCUCAACUAUGACACGCAAAACGCGUGCUCCGUUGAAUGGAGUUUAUCAGG	≤ -4.2
GGAUCUUCUCGAUCUAACAAAAAAGACAAAUCUGCCACAAAGCUUGAGAGCCUCUUCGGAUGCAGAGGCGGCAGCCUUCGGUGGCGCGAUUGCGCCAACGUUCUCAACUAUGACACGCAAAACGCGUGCUCCGUUGAAUGGAGUUUAUCAUG	≤ -4.2
GGAUCUUCUCGAUCUAACAAAAAAGACAAAUCUGCCACAAAGCUUGAGAGUAUCUACGGAUGCAGAGGCGGCAGCCUUCGGUGGCGCGAUAGCGCCAACGUUCUCAACUAUGACACGCAAAACGCGUGCUCCGUUGAAUGGAGUUUAUCAUG	-0.892
GGAUCUUCUCGAUCUAACAAAAAAGACAAAUCUGCCACAAAGCUUGAGAGUAUCUUCGGAUGCAGAGGCGGCAGCCUGCGGUGGCGCGAUAGCGCUAACGUUCUCAACUAUGACACGCAAAACGCGUGCUCCGUUGAAUGGAGUUUAUCAUG	≤ -4.2
GGAUCUUCUCGAUCUAACAAAAAAGACAAAUCUGCCACAAAGCUUGAGAGCCUCUUCGGAUGCAGAGGCGGCAGCCUUCCGUGGCGCGGUAGCGCCAACGUUCUCAACUAUGACACGCAAAACGCUUGCUCCGUUGAAUGGAGUUUAUCAUG	≤ -4.2
GGAUCUUCUCGAUCUAACAAAAAAGACAAAUCUGCCACAAAGCUUGAGAGCCUCUUCGGAUGCAGAGGCGGCAGCCUUCGGUGGCGCGAUAGCGCAAACGUUCUCAACUAUGACACGCAAAACGCGUGCUCCGUUGAAUGGAGUUUAUCAUG	-1.55
GGAUCUUCUCGAUCUAACAAAAAAGACAAAUCUGCCACAAAGCUUGAGAGUAGCUUCGGAUGCAGAGGCGGCAGCCUUCGGUGGCGCGAUAGCGCCAACGUUCUCAACUAUGACACGCUAAACGCGUGCUCCGUUGAAUGGACUUUAUCAUG	≤ -4.2
GGAUCUUCUCGAUCUAACAAAAAAGACAAAUCUGCCACAAAGCUUGAGAGCCUCUUCGGAUGCAGAGACGGCAGCCUUCGGUGGCGCGAUAGCCCCAAUGUUCUCAAGUAUGACACGCACAACGCGUGCUCCGUUGAAUGGACUUUAUCAUG	≤ -4.2
GGAUCUUCUCGAUCUAACAAAAAAGACAAAUCUGCCACAAAGCUUGAGAGUAUCUGCGGAUGCAGAGGCGGCCGCCUUGGGUGGCGCGAUAGGGCCAACGUUCUCAACUAUGACACGCAAAACGCGUGCUCCGUUGCAUGGAGUUUAUCAUG	≤ -4.2
GGAUCUUCUCGAUCUAACAAAAAAGACAAAUCUGCCACAAAGCUUGAGAGCCUCUUCGGAUGCAGAGGCGGCAGCCUUCGGUGGCGCGAUAGGGCCAAAGUUCUCAACUAUGACACGGAAAACGCGUGCUCCGUUGAAUGGAGUUUAUCAUG	≤ -4.2
GGAUCUUCUCGAUCUAACAAAAAAGACAAAUCUGCCACAAAGCUUGAGAGCCUCUUCGGAUGCAGAGGCGGCAGCCUUCGGUGGCGCGAUAGCGCCAACGUUCUCAACUAUGACACGCAAAGCGCGUGCUCCGUUGAAUGGAGUUUAUCAUG	-1.4
GGAUCUUCUCGAUCUAACAAAAAAGACAAAUCUGCCACAAAGCUUGAGAGUAUCUUCGGAUGCAGAGGCGGCAGCCUGCGGUGGCGCGAUAGCGCCAACGUUCUCAACUAUGACACGCAAAACGCGUGCUCCGUUGAAUGGAGUUUAUCAUG	≤ -4.2
GGAUCUUCUCGAUCUAACAAAAAAGACAAAUCUGCCACAAAGCUUGAGAGCCUAUUCGGAUGCAGAGGCGGCAGCCUUCGGUGGCGCGGUAGCGCCAACGUUCUCAACUAUGACACACAAAACGCGUGCUCCGUUGAAUGGAGUUUAUCAUG	-3.55
GGAUCUUCUCGAUCUAACAAAAAAGACAAAUCUGCCACAAAGCUUGAGAGUAUCUUCGGAAGCAGAGGCGGCAGCCUUCGUUGGCACGAUAGCGCCAACGUUCUCAACUAUGACACGCAAAACGCGUGCUGCGUUGAAUGGAGUUUAUCAUG	≤ -4.2
GGAUCUUCUCGAUCUAACAAAAAAGACAAAUCUGCCACAAAGCUUGAGAGCCUCUUCGGAUGCAGAGGCGGCUGCCUUCGGUGGCGCGGUAGCGCCAACGUUCUCAACUAUGACACGCAAAACGCAUGCUCCGUUGAAUGGAGUUUAUCAUG	≤ -4.2
